Test results as given in publication PMC1141267.
These are yes or no findings as the source states them, for the method shown. In cells and extracts the contact can be indirect. Some binding calls cover weakened binding; strength is not graded here. For some of these results: Sequences can lack the tags named with a protein.

Amino acid sequences for entries named in this document (tags omitted).
UniProt Q9VCU9: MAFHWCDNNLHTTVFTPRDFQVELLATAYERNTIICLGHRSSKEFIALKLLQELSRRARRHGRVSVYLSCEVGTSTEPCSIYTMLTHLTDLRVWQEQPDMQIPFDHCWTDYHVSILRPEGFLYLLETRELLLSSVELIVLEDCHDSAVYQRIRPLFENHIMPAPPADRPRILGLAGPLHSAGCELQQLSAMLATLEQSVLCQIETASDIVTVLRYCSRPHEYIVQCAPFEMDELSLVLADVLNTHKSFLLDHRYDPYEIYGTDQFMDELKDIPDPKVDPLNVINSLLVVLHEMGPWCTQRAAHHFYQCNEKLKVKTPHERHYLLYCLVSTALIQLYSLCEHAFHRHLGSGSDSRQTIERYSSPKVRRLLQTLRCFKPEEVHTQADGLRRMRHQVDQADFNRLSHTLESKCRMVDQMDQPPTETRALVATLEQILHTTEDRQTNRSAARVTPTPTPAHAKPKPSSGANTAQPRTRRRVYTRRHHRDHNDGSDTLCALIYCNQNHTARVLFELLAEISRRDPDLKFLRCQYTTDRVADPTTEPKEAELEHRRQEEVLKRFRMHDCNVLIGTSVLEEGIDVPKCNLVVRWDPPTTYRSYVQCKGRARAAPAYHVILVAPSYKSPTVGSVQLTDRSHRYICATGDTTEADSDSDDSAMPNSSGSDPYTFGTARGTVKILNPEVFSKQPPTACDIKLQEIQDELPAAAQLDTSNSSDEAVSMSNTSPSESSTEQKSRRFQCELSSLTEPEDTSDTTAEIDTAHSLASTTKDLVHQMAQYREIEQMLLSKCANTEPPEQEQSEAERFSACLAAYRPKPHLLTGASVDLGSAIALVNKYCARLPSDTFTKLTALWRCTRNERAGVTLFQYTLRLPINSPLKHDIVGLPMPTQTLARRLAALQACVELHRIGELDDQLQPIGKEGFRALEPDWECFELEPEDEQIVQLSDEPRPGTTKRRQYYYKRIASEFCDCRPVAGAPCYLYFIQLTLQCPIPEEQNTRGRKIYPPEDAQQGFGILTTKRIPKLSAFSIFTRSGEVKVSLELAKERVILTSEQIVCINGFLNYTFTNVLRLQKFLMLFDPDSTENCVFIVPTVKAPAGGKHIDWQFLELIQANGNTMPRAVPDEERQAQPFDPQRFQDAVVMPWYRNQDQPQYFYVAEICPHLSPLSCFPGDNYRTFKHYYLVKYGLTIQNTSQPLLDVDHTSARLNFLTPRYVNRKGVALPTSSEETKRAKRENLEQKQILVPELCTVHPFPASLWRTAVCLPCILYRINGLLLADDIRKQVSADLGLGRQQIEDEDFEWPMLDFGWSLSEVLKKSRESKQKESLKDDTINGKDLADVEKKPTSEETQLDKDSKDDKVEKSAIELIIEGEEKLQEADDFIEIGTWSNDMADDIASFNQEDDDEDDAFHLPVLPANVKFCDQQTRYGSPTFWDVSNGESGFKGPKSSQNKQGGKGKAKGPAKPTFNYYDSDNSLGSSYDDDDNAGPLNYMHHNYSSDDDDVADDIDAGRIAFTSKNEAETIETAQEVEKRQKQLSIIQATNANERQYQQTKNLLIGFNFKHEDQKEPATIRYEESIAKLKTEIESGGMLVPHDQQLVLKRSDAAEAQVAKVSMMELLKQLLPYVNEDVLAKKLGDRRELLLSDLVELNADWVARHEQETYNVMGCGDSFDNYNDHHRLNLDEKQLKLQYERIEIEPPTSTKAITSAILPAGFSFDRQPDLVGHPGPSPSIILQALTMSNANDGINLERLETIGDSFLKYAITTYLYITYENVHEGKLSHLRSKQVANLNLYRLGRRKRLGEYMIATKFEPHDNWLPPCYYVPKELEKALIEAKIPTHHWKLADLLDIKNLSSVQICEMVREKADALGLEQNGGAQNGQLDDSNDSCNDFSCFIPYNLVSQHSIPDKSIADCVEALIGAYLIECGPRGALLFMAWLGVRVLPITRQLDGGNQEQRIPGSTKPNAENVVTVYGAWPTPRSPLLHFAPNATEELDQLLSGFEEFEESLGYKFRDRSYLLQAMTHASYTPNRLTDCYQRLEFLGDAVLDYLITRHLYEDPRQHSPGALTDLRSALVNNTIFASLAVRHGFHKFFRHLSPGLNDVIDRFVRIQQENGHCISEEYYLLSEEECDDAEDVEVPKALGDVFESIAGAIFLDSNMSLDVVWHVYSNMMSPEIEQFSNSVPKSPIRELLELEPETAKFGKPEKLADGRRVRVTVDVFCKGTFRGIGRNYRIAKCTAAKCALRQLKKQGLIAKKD
UniProt A1ZAW0: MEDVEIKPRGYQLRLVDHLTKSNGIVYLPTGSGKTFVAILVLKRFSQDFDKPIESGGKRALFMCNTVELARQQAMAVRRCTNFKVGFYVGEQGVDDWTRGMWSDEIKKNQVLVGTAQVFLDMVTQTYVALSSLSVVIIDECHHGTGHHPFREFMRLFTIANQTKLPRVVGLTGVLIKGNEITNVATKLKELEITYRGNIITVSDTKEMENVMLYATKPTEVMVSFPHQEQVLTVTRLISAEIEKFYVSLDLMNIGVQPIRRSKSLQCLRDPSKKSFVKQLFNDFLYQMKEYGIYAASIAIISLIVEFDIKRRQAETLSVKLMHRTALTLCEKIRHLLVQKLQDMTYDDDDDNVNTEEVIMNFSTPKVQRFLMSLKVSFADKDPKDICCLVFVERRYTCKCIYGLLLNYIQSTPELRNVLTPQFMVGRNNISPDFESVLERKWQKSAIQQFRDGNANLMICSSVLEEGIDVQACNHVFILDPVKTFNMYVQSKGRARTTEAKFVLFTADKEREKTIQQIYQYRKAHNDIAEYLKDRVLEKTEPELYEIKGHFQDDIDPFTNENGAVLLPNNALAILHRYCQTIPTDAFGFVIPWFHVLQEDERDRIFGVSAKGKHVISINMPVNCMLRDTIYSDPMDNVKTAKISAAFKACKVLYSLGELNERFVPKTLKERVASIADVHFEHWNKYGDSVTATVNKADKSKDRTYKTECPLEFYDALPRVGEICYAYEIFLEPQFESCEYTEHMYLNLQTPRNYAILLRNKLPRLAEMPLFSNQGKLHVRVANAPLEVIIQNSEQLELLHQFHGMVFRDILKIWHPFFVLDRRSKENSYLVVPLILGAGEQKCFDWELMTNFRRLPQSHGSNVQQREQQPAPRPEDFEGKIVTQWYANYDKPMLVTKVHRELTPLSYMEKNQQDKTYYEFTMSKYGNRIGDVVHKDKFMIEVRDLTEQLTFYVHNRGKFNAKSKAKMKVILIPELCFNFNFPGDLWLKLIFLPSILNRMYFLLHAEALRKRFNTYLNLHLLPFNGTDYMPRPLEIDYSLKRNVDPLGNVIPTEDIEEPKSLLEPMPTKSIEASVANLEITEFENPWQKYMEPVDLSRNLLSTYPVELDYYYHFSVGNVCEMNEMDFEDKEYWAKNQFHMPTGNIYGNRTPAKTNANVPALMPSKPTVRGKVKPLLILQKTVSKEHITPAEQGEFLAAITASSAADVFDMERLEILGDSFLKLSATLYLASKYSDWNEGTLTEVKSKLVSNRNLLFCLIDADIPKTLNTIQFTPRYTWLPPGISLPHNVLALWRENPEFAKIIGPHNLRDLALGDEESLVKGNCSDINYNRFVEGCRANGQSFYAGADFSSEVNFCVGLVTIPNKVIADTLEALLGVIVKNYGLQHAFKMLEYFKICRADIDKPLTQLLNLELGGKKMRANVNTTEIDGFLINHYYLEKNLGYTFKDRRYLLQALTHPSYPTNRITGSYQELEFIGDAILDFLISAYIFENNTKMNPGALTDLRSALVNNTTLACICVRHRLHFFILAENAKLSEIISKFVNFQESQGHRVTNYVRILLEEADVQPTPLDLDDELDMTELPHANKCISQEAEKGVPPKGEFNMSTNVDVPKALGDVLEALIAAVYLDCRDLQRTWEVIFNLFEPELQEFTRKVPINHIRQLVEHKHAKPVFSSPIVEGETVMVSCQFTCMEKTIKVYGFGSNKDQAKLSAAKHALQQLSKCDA

T1: myc-tagged Loqs protein isoform A (Drosophila melanogaster) (UniProt Q9VJY9)
T1 sequence: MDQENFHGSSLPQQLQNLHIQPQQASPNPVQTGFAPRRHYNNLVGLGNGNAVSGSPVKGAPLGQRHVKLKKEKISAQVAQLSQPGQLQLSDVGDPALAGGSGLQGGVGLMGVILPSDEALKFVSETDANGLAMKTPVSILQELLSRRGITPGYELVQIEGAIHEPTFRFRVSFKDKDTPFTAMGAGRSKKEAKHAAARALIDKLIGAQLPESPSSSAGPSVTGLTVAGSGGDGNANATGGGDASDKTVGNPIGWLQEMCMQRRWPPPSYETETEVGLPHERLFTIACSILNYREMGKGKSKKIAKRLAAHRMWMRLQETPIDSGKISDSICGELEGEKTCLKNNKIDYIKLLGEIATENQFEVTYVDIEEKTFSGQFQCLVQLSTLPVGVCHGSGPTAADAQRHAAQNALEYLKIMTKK

T2: myc-tagged Loqs protein isoform B (Drosophila melanogaster) (UniProt Q9VJY9)
T2 sequence: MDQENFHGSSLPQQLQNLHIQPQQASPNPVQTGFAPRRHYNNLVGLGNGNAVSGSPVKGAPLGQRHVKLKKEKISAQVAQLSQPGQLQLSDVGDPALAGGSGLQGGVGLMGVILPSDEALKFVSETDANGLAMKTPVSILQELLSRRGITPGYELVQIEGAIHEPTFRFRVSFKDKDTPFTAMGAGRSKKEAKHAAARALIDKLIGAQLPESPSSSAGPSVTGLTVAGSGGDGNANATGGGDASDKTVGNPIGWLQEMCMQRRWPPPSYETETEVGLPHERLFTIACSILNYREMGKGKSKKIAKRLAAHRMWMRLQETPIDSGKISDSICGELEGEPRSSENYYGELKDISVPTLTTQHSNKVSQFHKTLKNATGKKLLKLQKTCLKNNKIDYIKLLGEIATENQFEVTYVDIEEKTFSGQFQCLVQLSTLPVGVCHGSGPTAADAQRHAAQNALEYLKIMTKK

B1: myc-tagged Loqs protein isoform A (protein, UniProt Q9VJY9-2 1-419)
chain: MDQENFHGSSLPQQLQNLHIQPQQASPNPVQTGFAPRRHYNNLVGLGNGNAVSGSPVKGAPLGQRHVKLKKEKISAQVAQLSQPGQLQLSDVGDPALAGGSGLQGGVGLMGVILPSDEALKFVSETDANGLAMKTPVSILQELLSRRGITPGYELVQIEGAIHEPTFRFRVSFKDKDTPFTAMGAGRSKKEAKHAAARALIDKLIGAQLPESPSSSAGPSVTGLTVAGSGGDGNANATGGGDASDKTVGNPIGWLQEMCMQRRWPPPSYETETEVGLPHERLFTIACSILNYREMGKGKSKKIAKRLAAHRMWMRLQETPIDSGKISDSICGELEGEKTCLKNNKIDYIKLLGEIATENQFEVTYVDIEEKTFSGQFQCLVQLSTLPVGVCHGSGPTAADAQRHAAQNALEYLKIMTKK
B2: myc-tagged Loqs protein isoform B (protein, UniProt Q9VJY9-1 1-465)
chain: MDQENFHGSSLPQQLQNLHIQPQQASPNPVQTGFAPRRHYNNLVGLGNGNAVSGSPVKGAPLGQRHVKLKKEKISAQVAQLSQPGQLQLSDVGDPALAGGSGLQGGVGLMGVILPSDEALKFVSETDANGLAMKTPVSILQELLSRRGITPGYELVQIEGAIHEPTFRFRVSFKDKDTPFTAMGAGRSKKEAKHAAARALIDKLIGAQLPESPSSSAGPSVTGLTVAGSGGDGNANATGGGDASDKTVGNPIGWLQEMCMQRRWPPPSYETETEVGLPHERLFTIACSILNYREMGKGKSKKIAKRLAAHRMWMRLQETPIDSGKISDSICGELEGEPRSSENYYGELKDISVPTLTTQHSNKVSQFHKTLKNATGKKLLKLQKTCLKNNKIDYIKLLGEIATENQFEVTYVDIEEKTFSGQFQCLVQLSTLPVGVCHGSGPTAADAQRHAAQNALEYLKIMTKK
B3: Loqs protein isoform B (endogenous) (protein, UniProt Q9VJY9-1 1-465)
chain: MDQENFHGSSLPQQLQNLHIQPQQASPNPVQTGFAPRRHYNNLVGLGNGNAVSGSPVKGAPLGQRHVKLKKEKISAQVAQLSQPGQLQLSDVGDPALAGGSGLQGGVGLMGVILPSDEALKFVSETDANGLAMKTPVSILQELLSRRGITPGYELVQIEGAIHEPTFRFRVSFKDKDTPFTAMGAGRSKKEAKHAAARALIDKLIGAQLPESPSSSAGPSVTGLTVAGSGGDGNANATGGGDASDKTVGNPIGWLQEMCMQRRWPPPSYETETEVGLPHERLFTIACSILNYREMGKGKSKKIAKRLAAHRMWMRLQETPIDSGKISDSICGELEGEPRSSENYYGELKDISVPTLTTQHSNKVSQFHKTLKNATGKKLLKLQKTCLKNNKIDYIKLLGEIATENQFEVTYVDIEEKTFSGQFQCLVQLSTLPVGVCHGSGPTAADAQRHAAQNALEYLKIMTKK
B4: Loqs protein isoform A (endogenous) (protein, UniProt Q9VJY9-2 1-419)
chain: MDQENFHGSSLPQQLQNLHIQPQQASPNPVQTGFAPRRHYNNLVGLGNGNAVSGSPVKGAPLGQRHVKLKKEKISAQVAQLSQPGQLQLSDVGDPALAGGSGLQGGVGLMGVILPSDEALKFVSETDANGLAMKTPVSILQELLSRRGITPGYELVQIEGAIHEPTFRFRVSFKDKDTPFTAMGAGRSKKEAKHAAARALIDKLIGAQLPESPSSSAGPSVTGLTVAGSGGDGNANATGGGDASDKTVGNPIGWLQEMCMQRRWPPPSYETETEVGLPHERLFTIACSILNYREMGKGKSKKIAKRLAAHRMWMRLQETPIDSGKISDSICGELEGEKTCLKNNKIDYIKLLGEIATENQFEVTYVDIEEKTFSGQFQCLVQLSTLPVGVCHGSGPTAADAQRHAAQNALEYLKIMTKK

Assays:
[1] = biological target: T1, myc-tagged Loqs protein isoform A (Drosophila melanogaster); assay: co-IP; anti-myc (9E10) immunoprecipitation from lysates of transfected S2 cells, 4 °C, washes with lysis buffer with 1% Triton X-100; Western blot with anti-Dcr-1 or anti-Dcr-2
[2] = biological target: T2, myc-tagged Loqs protein isoform B (Drosophila melanogaster); assay: as above
[3] = biological target: Dicer-1 (Drosophila melanogaster (endogenous in S2 cells)) (UniProt Q9VCU9); assay: co-IP; anti-Dcr-1 immunoprecipitation from lysates of S2 cells transfected with myc-tagged GFP, Loqs PA or Loqs PB; Western blot with anti-myc
[4] = biological target: Dicer-1 (Drosophila melanogaster (endogenous in S2 cells)) (UniProt Q9VCU9); assay: co-IP; anti-Dcr-1 immunoprecipitation from S2 cell lysate; Western blot with anti-Loqs to detect endogenous Loqs isoforms

Row | Molecule | binding [2] | binding [3] | binding [4] | further results
1 | Dicer-1 (from UniProt Q9VCU9 1-2249) (enzyme) | binds |  |  | binding [1]: binds
2 | Dicer-2 (from UniProt A1ZAW0 1-1722) (enzyme) | no binding |  |  | 
3 | B1 |  | binds |  | 
4 | B2 |  | binds |  | 
5 | B3 |  |  | binds | 
6 | B4 |  |  | binds | 
